# Experimental data published in PubChem BioAssay AID1476 (National Center for Advancing Translational Sciences (NCATS), 2009).
# Screen size: about 200,000 compounds; about 4,500 (2.2%) were called active. Inconclusive means that the source gave no clear call. Such entries were picked first, then a sample of the others. Calls follow the shape of the dose curve; as a rule, active = well fitted inhibition curve with a large enough effect; inconclusive = small, poorly fitted or top-dose-only effect, or effect the other way; inactive = flat fitted curve, though single readings scatter. Where the call is inconclusive, the potency comes from a doubtful curve fit.
# Target: Cruzipain (Trypanosoma cruzi) (UniProt P25779)
# Sequence of UniProt P25779 (P25779 whole entry, looked up): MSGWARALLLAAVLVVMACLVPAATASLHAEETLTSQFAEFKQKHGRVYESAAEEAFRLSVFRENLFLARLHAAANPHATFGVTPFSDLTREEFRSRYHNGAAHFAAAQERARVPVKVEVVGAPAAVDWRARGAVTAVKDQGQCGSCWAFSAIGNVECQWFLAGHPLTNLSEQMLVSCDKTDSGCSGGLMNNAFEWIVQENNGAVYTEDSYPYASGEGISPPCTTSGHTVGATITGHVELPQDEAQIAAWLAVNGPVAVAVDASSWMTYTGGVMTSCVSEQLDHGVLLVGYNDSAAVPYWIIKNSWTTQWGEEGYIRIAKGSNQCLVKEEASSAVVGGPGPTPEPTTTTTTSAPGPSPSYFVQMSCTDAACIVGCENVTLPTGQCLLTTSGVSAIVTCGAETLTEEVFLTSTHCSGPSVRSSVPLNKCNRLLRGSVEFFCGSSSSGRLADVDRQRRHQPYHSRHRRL
# Assay: qHTS Assay for Promiscuous and Specific Inhibitors of Cruzain (without detergent); also: nearly all actives have a fitted effect of over 40% in size;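 as to max response, negative = inhibition: plate controls were enzyme without inhibitor for no effect and buffer without enzyme for full effect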
# Conditions: purified cruzain, Z-FR-AMC fluorescence, no detergent
# Outline: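 Purified cruzain at 1.5 nM, pre-incubated 15 min with compound at room temperature in 100 mM sodium acetate pH 5.5, 5 mM DTT, 0.00005% Triton X-100. Reaction started with 2 uM Z-FR-AMC; AMC fluorescence increase over 60 s gives rate.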
# Potency is read from the fitted curve at half-maximal effect; tags tell the direction and shape of the fitted curve.
Structure (SMILES),"max response, negative = inhibition",Potency
COc1ccc(NC(=O)c2nnn(Cc3nc(-c4cc(OC)c(OC)c(OC)c4)oc3C)c2C)cc1Cl,inactive: -15.4%,–
C=CC(C)(C)c1c2c(c(O)c3c(=O)c4ccc(O)c(O)c4oc13)C=CC(C)(C)O2,–,"inconclusive: 39.8 µM [inhibitor, single point]"
CCOc1ccc(-c2nc(-c3cccnc3)no2)cc1OCC,–,"inconclusive: 39.8 µM [activator, single point]"
COCCNC(=O)C1CCN(Cc2cc3ccccc3n2Cc2ccc(C)cc2)CC1,inactive: 1.99%,–
CCCCNC(=O)CC1Nc2ccccc2NC1=O (centres undefined),inactive: 5.07%,–
COCCn1c(=O)c(-c2cccs2)nc2cnc(N(C)C)nc21,inactive: -4.83%,–
Cc1ccc(-n2ncc3c(NCCCN4CCOCC4)ncnc32)cc1C,inactive: 1.12%,–
c1ccc(CN2CN=C(Nc3nc4ccccc4s3)NC2)cc1,inactive: -8.3%,–
CCN(c1ccccc1)S(=O)(=O)c1ccc2[nH]cc(C(=O)NCCOC)c(=O)c2c1,–,"inconclusive: 31.6 µM [activator, single point]"
Cc1c(C(=O)Nc2cccc(C(F)(F)F)c2)sc2nc[nH]c(=O)c12,inactive: 9.45%,–
Cc1onc(-c2ccccc2)c1C(=O)NNC(=S)NC(=O)/C=C/c1cccs1,–,"inconclusive: 39.8 µM [inhibitor, single point]"
COc1ccc(CCNC(=O)c2ccc3c(c2)N(Cc2ccc(F)cc2)C(=O)c2ccccc2S3(=O)=O)cc1OC,–,"inconclusive: 31.6 µM [activator, single point]"
Cc1ccc(CC2S/C(=N/c3ccccn3)NC2=O)cc1 (centres undefined),–,"inconclusive: 39.8 µM [inhibitor, single point]"
CCOC(=O)c1ccc(NC(=O)Cn2cc(C(=O)C3CC3)c3ccccc32)cc1,inactive: 13.3%,–
Cc1cc(C)n(-c2nc(C)c(C)c(=O)n2CC(=O)Nc2ccc([N+](=O)[O-])cc2)n1,inactive: -15.6%,–
COC(=O)c1ccc(C(C(=O)NC2CCCCC2)N(CCc2ccccc2)C(=O)Cc2cccs2)cc1 (centres undefined),–,active: 12.6 µM
O=C(Oc1cccnc1)c1cc2ccccc2oc1=O,–,"inconclusive: 12.6 µM [inhibitor, partial curve]"
Cc1ccc(-n2c(C)cc(C(=O)OCC(=O)N(CC(C)C)C3CCS(=O)(=O)C3)c2C)cc1 (centres undefined),–,"inconclusive: 31.6 µM [activator, partial curve]"
COc1ccccc1C(=O)Oc1cc(N)n(S(=O)(=O)c2ccc(C)cc2)n1,–,"inconclusive: 31.6 µM [inhibitor, single point]"
COc1cccc(CNS(=O)(=O)c2cnc(N)nc2)c1,inactive: -6.09%,–
COc1ccc(-c2cnc(-c3cccnc3)o2)cc1,inactive: -6.93%,–
CC(C)c1ccc(C(O)(C(=O)O)c2ccc(C(C)C)cc2)cc1,inactive: 13.2%,–

Structure (SMILES),"max response, negative = inhibition",Potency
CCc1cccc(NC(=O)c2ccc(Cn3c(=O)[nH]c4ccsc4c3=O)cc2)c1,–,"inconclusive: 39.8 µM [inhibitor, single point]"
Cc1ccc(NC(=O)C2CCCN(S(=O)(=O)c3c(C)n[nH]c3C)C2)c(C)c1 (centres undefined),inactive: -3.38%,–
COc1ccc(S(=O)(=O)N2CCC(C(=O)Nc3ccccc3C)CC2)c2cccnc12,–,"inconclusive: 39.8 µM [activator, single point]"
COc1ccc(NS(=O)(=O)c2ccc3nc(COc4cccc5ccccc45)[nH]c3c2)cc1,–,active: 31.6 µM
CCOc1cc(/C=C(/C#N)c2ccc(F)cc2)ccc1OCc1ccc(C(=O)O)o1,–,"inconclusive: 25.1 µM [activator, single point]"
O=C(COC(=O)c1sc2cc(F)ccc2c1Cl)Nc1ncc(Cl)cc1Cl,–,"inconclusive: 39.8 µM [inhibitor, single point]"
Cc1nc(N2CCN(c3ccccc3)CC2)nc2c1C(=O)CC(c1ccccc1)C2 (centres undefined),–,"inconclusive: 39.8 µM [inhibitor, single point]"
COc1ccc(CCNC(=O)C(=O)NCC(c2ccco2)S(=O)(=O)c2ccc(C)cc2)cc1 (centres undefined),–,"inconclusive: 39.8 µM [inhibitor, single point]"
Cc1nnc(SCc2nc3ccccc3[nH]2)s1,inactive: -1.4%,–
CCOC(=O)c1c(NC(=O)C2=C(C)NC(=S)NC2c2ccc(C)cc2)sc(C)c1C (centres undefined),–,active: 20 µM
Cc1ccc(C(=O)N/C(=C\c2cccc([N+](=O)[O-])c2)C(=O)OCN2C(=O)c3ccccc3C2=O)cc1,–,active: 15.8 µM
COc1ccc(-c2cc(C(=O)NCc3cn(C)nc3C)c3ccccc3n2)cc1OC,–,"inconclusive: 39.8 µM [activator, single point]"
O=C(CN1C(=O)C2(OCCO2)c2ccccc21)c1ccc(Br)cc1,–,"inconclusive: 39.8 µM [inhibitor, single point]"
CN(C)c1ccc(P(=O)(Nc2cccc(C(F)(F)F)c2)N2CCOCC2)c(NC(=O)c2cccs2)c1 (centres undefined),–,"inconclusive: 12.6 µM [activator, partial curve]"
N#Cc1c(N)nc2c3c(sc(=N)c2c1N)NC(=O)CC3c1c(F)cccc1Cl (centres undefined),–,"inconclusive: 31.6 µM [inhibitor, single point]"
COC(=O)c1ccc(C2Nc3c(C)cccc3-c3cc(C)nn32)cc1 (centres undefined),–,"inconclusive: 31.6 µM [activator, single point]"
Fc1ccc(NCc2nnc3n2CCCCC3)cc1Cl,inactive: -1.16%,–
N=c1n(CC(=O)c2ccc([N+](=O)[O-])cc2)c2ccccc2n1Cc1ccccc1Cl,–,"inconclusive: 39.8 µM [inhibitor, single point]"
Nc1nc(-n2cnnc2)nn1-c1ccccc1,–,"inconclusive: 0.199 µM [inhibitor, full curve, poor fit]"
COc1cc(C(=O)Nc2ccc(NC(=O)c3ccc(C(C)(C)C)cc3)cc2)cc(OC)c1OC,–,"inconclusive: 31.6 µM [activator, single point]"
CCC1Oc2ccc(C)cc2N(CC(=O)N(Cc2ccc3c(c2)OCO3)CC2CCCO2)C1=O (centres undefined),–,"inconclusive: 31.6 µM [activator, single point]"
O=C(Nc1nnc(CCc2ccccc2)s1)c1ccco1,–,"inconclusive: 31.6 µM [inhibitor, single point]"

Structure (SMILES),"max response, negative = inhibition",Potency
Cc1cccc(CNC(=O)c2ccc(N3Cc4ccccc4Oc4ncccc43)s2)c1,–,"inconclusive: 39.8 µM [inhibitor, single point]"
COc1ccc(CN(C(=O)c2cnccn2)C(C(=O)NC(C)(C)C)c2cc(OC)c(OC)c(OC)c2)cc1 (centres undefined),–,"inconclusive: 25.1 µM [activator, single point]"
COc1nccnc1NS(=O)(=O)c1ccc(NC(=S)NC(=O)/C=C/c2ccccc2)cc1,–,"inconclusive: 31.6 µM [inhibitor, single point]"
C[C@@H](C1[C@@H](O)CC2C3C=CC4C[C@@H](O)CC[C@]4(C)[C@H]3CC[C@@]21C)[C@@H]1CCCCN1 (some centres undefined),inactive: -5.41%,–
CN(C)c1cccc(C(=O)N2CCC(c3c[nH]c4ccccc34)(c3c[nH]c4ccccc34)CC2)c1,–,"inconclusive: 39.8 µM [inhibitor, single point]"
CCC(C(=O)NCc1cc(OC)ccc1OC)n1nc(C)c2sc3ccccc3c2c1=O (centres undefined),inactive: 8.62%,–
CN(C)/C=C(\C#N)C(=O)c1cccc(Oc2ccc(Br)cc2)c1,–,"inconclusive: 39.8 µM [activator, single point]"
COc1cc(Nc2nc(SCc3ccc(Cl)cc3)nc3ccccc23)cc(OC)c1,–,"inconclusive: 39.8 µM [inhibitor, single point]"
CCOC(=S)SCC(=O)N1CCc2cc(OC)c(OC)cc2C1C1C(=O)CC(C)(C)CC1=O (centres undefined),–,"inconclusive: 31.6 µM [activator, single point]"
CCOC(=O)c1c(-c2ccc(C)cc2)csc1NC(=O)c1cc(=O)c2cc(C)ccc2o1,inactive: -22.7%,–
O=C(Cn1c(=O)nc(-c2ccccc2)c2ccccc21)NCCc1ccccc1,inactive: 0.751%,–
COCC(=O)OCC(=O)Nc1cc(C(C)(C)C)nn1-c1ccccc1,–,"inconclusive: 3.16 µM [inhibitor, partial curve]"
CC(C)C(C(=O)OCC(=O)c1cccc([N+](=O)[O-])c1)N1C(=O)[C@@H]2[C@H]3CC[C@H](C3)[C@@H]2C1=O (some centres undefined),–,"inconclusive: 39.8 µM [inhibitor, single point]"
Cc1ccccc1N1CCN(c2ncnc3scc(-c4cccs4)c23)CC1,–,"inconclusive: 39.8 µM [inhibitor, single point]"
C/C(=N\NC(=O)c1c(Cl)c(C)nn1C)c1ccc(NC(=O)c2ccncc2)cc1,–,"inconclusive: 15.8 µM [activator, partial curve]"
CC(C)n1c(O)c(N=NC(=O)c2ccccc2NS(=O)(=O)c2cccs2)c2ccccc21,–,"inconclusive: 31.6 µM [inhibitor, single point]"
COc1ccc2c(c1)c(=O)oc1cc(OCC(=O)N3CCCC(C)C3)ccc12 (centres undefined),–,"inconclusive: 20 µM [activator, single point]"
Cc1cc(C(=O)N/N=C/c2cccc([N+](=O)[O-])c2)c(C)n1-c1ccccc1,inactive: -25.1%,–
N#C/C(=C\c1ccc(O)c(O)c1)C(=O)NCCCCc1ccccc1,–,"inconclusive: 31.6 µM [inhibitor, partial curve, poor fit]"
Cc1ccc(-n2c(SCC(=O)NCc3ccco3)nc3c(sc4ccccc43)c2=O)cc1,–,"inconclusive: 25.1 µM [inhibitor, single point]"
